From paper PMC4336329 (PLoS ONE, 2015) come the findings set out here.

The campaign covered roughly 310,000 compounds. About 14,000 (4.5%) showed an effect of 50% or more. Effects have a minus sign here. Some of the results follow.
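Note: peak tail current of the secondary pulse compared with the same well before compound.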

human ether-à-go-go-related gene (hERG) potassium channel, sequence (Q12809 whole entry, looked up): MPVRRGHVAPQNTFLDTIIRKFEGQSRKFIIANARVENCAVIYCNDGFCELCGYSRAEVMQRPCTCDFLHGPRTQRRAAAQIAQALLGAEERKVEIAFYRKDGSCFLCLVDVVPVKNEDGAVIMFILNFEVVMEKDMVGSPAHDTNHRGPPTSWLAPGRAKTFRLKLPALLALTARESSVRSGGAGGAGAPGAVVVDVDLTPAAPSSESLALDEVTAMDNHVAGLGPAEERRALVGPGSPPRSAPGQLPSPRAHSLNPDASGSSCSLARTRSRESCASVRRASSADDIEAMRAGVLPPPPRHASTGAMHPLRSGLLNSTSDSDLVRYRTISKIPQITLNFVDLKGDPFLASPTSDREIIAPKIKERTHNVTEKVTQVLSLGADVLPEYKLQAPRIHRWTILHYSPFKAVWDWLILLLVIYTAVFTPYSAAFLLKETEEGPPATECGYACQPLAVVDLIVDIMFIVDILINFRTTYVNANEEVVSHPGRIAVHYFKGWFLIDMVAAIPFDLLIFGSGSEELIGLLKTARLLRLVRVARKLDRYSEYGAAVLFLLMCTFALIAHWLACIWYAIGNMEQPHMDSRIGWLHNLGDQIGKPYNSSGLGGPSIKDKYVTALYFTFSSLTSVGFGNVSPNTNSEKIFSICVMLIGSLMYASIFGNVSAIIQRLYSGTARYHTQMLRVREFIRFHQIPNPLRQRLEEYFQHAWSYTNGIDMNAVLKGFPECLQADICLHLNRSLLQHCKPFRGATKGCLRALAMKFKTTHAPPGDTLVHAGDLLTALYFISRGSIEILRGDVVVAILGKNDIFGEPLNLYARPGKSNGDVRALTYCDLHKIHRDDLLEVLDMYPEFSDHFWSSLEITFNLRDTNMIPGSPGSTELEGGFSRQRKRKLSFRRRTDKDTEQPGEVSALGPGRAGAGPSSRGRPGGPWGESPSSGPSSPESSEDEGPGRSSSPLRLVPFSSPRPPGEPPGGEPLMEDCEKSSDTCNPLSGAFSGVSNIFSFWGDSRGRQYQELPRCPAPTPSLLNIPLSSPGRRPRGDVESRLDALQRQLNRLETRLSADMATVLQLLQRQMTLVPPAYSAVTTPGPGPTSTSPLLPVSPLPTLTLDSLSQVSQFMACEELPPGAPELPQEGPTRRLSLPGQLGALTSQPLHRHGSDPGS

The assay addresses human ether-à-go-go-related gene (hERG) potassium channel (human, UniProt Q12809). In words: primary screen, population patch clamp on CHO cells stably expressing hERG.
As for `COc1cccc(N(CC(=O)NC2CCCCC2)C(=O)CCC(=O)Nc2nc(C)cs2)c1`, the “hERG current change (%, negative = inhibition) at 10uM” value is given as -15.4%.

For the compound `COc1ccc(C2=NN(C(=O)c3cccs3)C(c3ccccc3O)C2)cc1` (stereo not shown), the “hERG current change (%, negative = inhibition) at 10uM” value is reported as 8.21%.

`CC(C)(CNC(=O)c1ccc(S(=O)(=O)N2CCCC2)cc1)N1CCOCC1`: the “hERG current change (%, negative = inhibition) at 10uM” value stood at 12%.

Consider `CCOC(=O)c1c(NC(C)=O)sc2c1C1CCN2CC1.Cl`, for which the “hERG current change (%, negative = inhibition) at 10uM” value is on record as 18.5%.

For `COC(=O)Cn1c(CN2CCc3ccccc3C2)nc2c1c(=O)n(C)c(=O)n2C`, the “hERG current change (%, negative = inhibition) at 10uM” value was -28%.

Regarding `COCCn1c(SCC(=O)c2[nH]c(C)c(C(C)=O)c2C)nc2ccccc2c1=O`, the “hERG current change (%, negative = inhibition) at 10uM” value was -12%.

For `Nc1c(Br)cc2oc(-c3ccccc3)nc2c1Br`, the “hERG current change (%, negative = inhibition) at 10uM” value is -5.69%.

With `Cc1c(NC(=O)c2cc(-c3cccs3)nc3ccccc23)c(=O)n(-c2ccccc2)n1C`, the “hERG current change (%, negative = inhibition) at 10uM” value is reported as 4.12%.

On to `O=C(O)C(=O)O.c1ccc(CNCCc2ccc3c(c2)OCO3)nc1`, for which the “hERG current change (%, negative = inhibition) at 10uM” value was 2.74%.

As for `Cc1nn(C(=O)N2CCOCC2)c(C)c1C`, the “hERG current change (%, negative = inhibition) at 10uM” value is given as 22%.

Regarding `CCOC(=O)c1cc2cc([N+](=O)[O-])ccc2oc1=O`, the “hERG current change (%, negative = inhibition) at 10uM” value is recorded as -21.7%.

`CCOC(=O)CN1C(=O)S/C(=C/c2cc(C)n(C)c2C)C1=O`: the “hERG current change (%, negative = inhibition) at 10uM” value is -3.84%.

For `CC(C)CCNC(=O)Cc1ccc(Nc2nc(=S)[nH]c3ccccc23)cc1`, the “hERG current change (%, negative = inhibition) at 10uM” value was 9.64%.

In the case of `COc1cc2c(cc1NC(=O)CSc1nc3ccc(C)cc3[nH]1)oc1ccccc12`, the “hERG current change (%, negative = inhibition) at 10uM” value turned out to be 7.65%.

Regarding `O=c1nc(SCc2c(F)cccc2Cl)nc(-c2ccc(Cl)cc2)[nH]1`, the “hERG current change (%, negative = inhibition) at 10uM” value is given as 10.5%.

For `Cc1oc(CC(C)C)c(CN)c1C(=O)O.Cl`, the “hERG current change (%, negative = inhibition) at 10uM” value is -7.41%.

`Cc1ccccc1-c1nnc(NC(=O)c2ccc(N3C(=O)CCC3=O)cc2)s1`: the “hERG current change (%, negative = inhibition) at 10uM” value worked out at 21%.

With `Cc1nnc(-n2cnc3ccccc32)c2ccccc12`, the “hERG current change (%, negative = inhibition) at 10uM” value is given as -5.31%.

With `COc1ccc(-c2cc(N)n(S(=O)(=O)c3ccc(C)cc3)n2)c(OC)c1`, the “hERG current change (%, negative = inhibition) at 10uM” value is reported as 6.37%.

Turning to `CCOc1cc(/C=N/NC(=O)Cn2nc([N+](=O)[O-])cc2C)cc(Br)c1OCc1ccccc1F`, the “hERG current change (%, negative = inhibition) at 10uM” value stood at 8.58%.

In the case of `Cc1cc(C)cc(OCCNC(=O)C2CCN(S(=O)(=O)c3ccccc3)CC2)c1`, the “hERG current change (%, negative = inhibition) at 10uM” value is reported as -11.3%.

On to `CC1Cc2ccccc2N1C(=O)c1ccc(Br)o1` (stereo not shown), for which the “hERG current change (%, negative = inhibition) at 10uM” value is on record as -13.1%.

As to `O=C(CN1CCOCC1)Nc1cc(Cl)ccc1Cl`, the “hERG current change (%, negative = inhibition) at 10uM” value was -32.5%.

`CCc1ccc(N2CN(Cc3cccnc3)CNC2=S)cc1`: the “hERG current change (%, negative = inhibition) at 10uM” value was -8.66%.

For the compound `O=C(COc1ccc2oc(-c3ccccc3)cc(=O)c2c1)Nc1ccccc1`, the “hERG current change (%, negative = inhibition) at 10uM” value is listed as -2.43%.
